Measurements: PubChem BioAssay AID1345082 (National Center for Advancing Translational Sciences (NCATS), 2018)
About 4,000 (4.3%) of roughly 94,000 compounds were called active. Inconclusive results, whose numbers are uncertain, are shown with a selection of clear calls. Calls follow the shape of the dose curve; as a rule, active = well fitted inhibition curve with a large enough effect; inconclusive = small, poorly fitted or top-dose-only effect; inactive = no such curve, though single readings can be large or run the other way. Potencies beside an inconclusive call are fits to weak or partial responses and may not hold up.

Assay: Cytotoxic Profiling in NIH 3T3 Cell Line of Diverse Libraries Using Quantitative High-Throughput Screening; also: nearly all actives have a fitted effect of over 55% in size
Conditions: NIH 3T3 viability, CellTiter-Glo ATP luminescence, 48-72 h; activity change, negative = cytotoxicity: at 96.7 µM (top of the series) unless noted; series mostly up to 96.7 µM
Method in brief: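 Mouse fibroblast NIH 3T3 cells, 400 per well, received compound via pintool and were incubated for 48 or 72 hr prior to CellTiter-Glo ATP luminescence measurement.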
% is scaled to controls: 0 for no effect and ±100 for the full control effect; potency is read from the fitted curve at half-maximal effect; tags tell the direction and shape of the fitted curve.

Row | SMILES | activity change, negative = cytotoxicity | Potency | outcome
1 | CCOCCn1c(=O)[nH]c2cc(C(=O)NCc3noc(CC)n3)ccc21 | inactive: -1.5% |  | 
2 | O=C(c1cccc(F)c1)N1CCOc2ccc(CN3CCc4ccccc4C3)cc2C1 |  | inconclusive: 39.8 µM [inhibitor, partial curve] | 
3 | CCN1C(=O)CN(C(=O)CC(C)C)CC12CCOCC2 | inactive: -13.3% |  | 
4 | Cc1nc2c(c(-c3ccc(Cl)cc3)n1)CCN(C(=O)C1CCCC1)CC2 |  | inconclusive: 70.8 µM [inhibitor, single point] | 
5 | O=C(c1ncccn1)N1CCc2c(n(CCOc3ccccc3)n(-c3ccccc3)c2=O)C1 |  | inconclusive: 70.8 µM [inhibitor, partial curve, poor fit] | 
6 | COCC1CN(C2CCC2)CC12CCN(C(=O)CCC1CCCC1)CC2 (stereo not given) |  | inconclusive: 44.7 µM [inhibitor, partial curve, poor fit] | 
7 | Cc1noc2c(N(C)C)cc(-c3ccsc3)nc12 |  | inconclusive: 100 µM [inhibitor, partial curve] | 
8 | Cc1ccc2oc(N3CCCC4(CCC(=O)N(Cc5cccnc5)C4)C3)nc2c1 (stereo not given) |  | inconclusive: 89.1 µM [inhibitor, single point] | 
9 | C[C@@H]1C(=O)O[C@H]2[C@H]1CC[C@@]1(C)Cc3sc(NS(=O)(=O)c4ccc(Cl)cc4)nc3[C@@H](C)[C@H]21 |  | inconclusive: 50.1 µM [inhibitor, partial curve, poor fit] | 
10 | COc1ccc([C@H]2C[C@@H](O)[C@@H](O)[C@@H]2NS(=O)(=O)c2ccc(C(F)(F)F)cc2)cc1 | inactive: -27.5% [at 174 µM] |  | 
11 | COc1ccc(C(=O)N2CC(C(=O)NCCc3ccccc3)CC(c3ccccc3)C2)cc1OC (stereo not given) |  | inconclusive: 39.8 µM [inhibitor, partial curve, poor fit] | 
12 | COC(=O)[C@@H]1Cc2c([nH]c3ccccc23)[C@H]2C[C@@H](NCCCn3ccnc3)C[C@@H](c3ccccc3F)N21 |  | active: 7.08 µM | 
13 | CSc1ccc(-c2cccc(C(=O)NCC(=O)NCc3cccnc3)c2)cc1 |  | inconclusive: 31.6 µM [inhibitor, full curve] | 
14 | COC[C@@H]1CN(S(=O)(=O)c2cccc(C)c2)C[C@H]1c1ccncc1 | inactive: -19.9% |  | 
15 | O=C(NC1CCN(c2cc(-c3cccs3)[nH]n2)C1)c1ccc(F)c(F)c1 (stereo not given) |  | inconclusive: 22.4 µM [inhibitor, full curve, poor fit] | 
16 | CCCN1CCC2(CCN(C(=O)c3ccc(Cl)cc3)CC2)Oc2ccccc21 |  | inconclusive: 44.7 µM [inhibitor, partial curve, poor fit] | 
17 | O=C(CC1CCCN(c2cnn(CC3CC3)c(=O)c2)C1)N1CCCC1 (stereo not given) |  | inconclusive: 70.8 µM [inhibitor, partial curve, poor fit] | 
18 | O=C(Cc1cccc(F)c1)NCCc1noc(-c2cccnc2)n1 |  |  | inactive
19 | Cc1ccc(-c2nnc3ccc(NCCc4ccccn4)nn23)nc1 |  | inconclusive: 89.1 µM [inhibitor, partial curve, poor fit] | 
20 | O=C(c1ccco1)N1Cc2[nH]cnc2C[C@H]1c1nc(-c2ccc(F)cc2)no1 |  | inconclusive: 126 µM [inhibitor, single point] | 
21 | Cc1ccc(C(=O)N2CCC3(CC2)CC(O)CCO3)cc1 (stereo not given) | inactive: -5.12% |  | 
22 | CCN1C(=O)C2(CCN(S(=O)(=O)c3ccc(CC(C)C)cc3)CC2)c2ccccc21 | inactive: -5.35% |  | 

Row | SMILES | activity change, negative = cytotoxicity | Potency | outcome
23 | CCc1nc(-c2c3n(c(=O)n(Cc4ccc(C(=O)OC)o4)c2=O)CCCC3)no1 | inactive: -16.4% |  | 
24 | Cc1ccccc1NC(=O)c1cnc2c(c1)N(C(=O)Cc1cn(C)c3ccccc13)CCC2 |  | inconclusive: 39.8 µM [inhibitor, full curve] | 
25 | CC1(C)[C@H]2CC[C@@H](CNC(=O)C3CC3)[C@@H]1C2 | inactive: -14.5% [at 174 µM] |  | 
26 | CC1(c2cccnc2)N(Cc2ccccc2)C(=O)OC12CCN(C(=O)c1cccc(Cl)c1)CC2 (stereo not given) |  | inconclusive: 3.98 µM [inhibitor, full curve, poor fit] | 
27 | Cc1cn2nc(C(=O)NCc3ccccn3)cc2c(=O)[nH]1 | inactive: -16.2% |  | 
28 | Cc1cnn(CCC(=O)N2CCC3(CCOCC3)CC2)c1 | inactive: 0.554% |  | 
29 | O=c1cc(-c2cccnc2)oc2c(-c3cccc(CO)c3)nccc12 |  | active: 31.6 µM | 
30 | Cc1cccc(CC(=O)N2CCC(Cc3nc(C4CCOCC4)no3)CC2)c1 | inactive: -7.04% |  | 
31 | O=C(C1CCCC1)N1CC(c2noc(COc3ccccc3)n2)C1 | inactive: -18.9% |  | 
32 | CN(C)CCNc1cc(-c2ccc3ccccc3n2)c2cc[nH]c2n1 |  | inconclusive: 39.8 µM [inhibitor, full curve, poor fit] | 
33 | O=C(NCc1ccc(F)cc1)c1ccc2nnc(-c3ccc(Cl)cc3)n2c1 |  | inconclusive: 31.6 µM [inhibitor, partial curve] | 
34 | Cc1ccc(-c2cccc(CN3CCCC(NC(=O)C(C)(C)C)C3)c2)cc1Cl (stereo not given) | inactive: -26.5% |  | 
35 | COc1ccc(OC)c(CN2CCC3(CC2)OC(=O)N(Cc2cccnc2)C3(C)c2ccccc2)c1 (stereo not given) |  | inconclusive: 44.7 µM [inhibitor, partial curve, poor fit] | 
36 | CC1=C[C@@H](CNC(=O)C2CC2)[C@H](C(C)C)C[C@H]1Cc1nc2ncccc2[nH]1 |  | inconclusive: 112 µM [inhibitor, single point] | 
37 | COc1ccc(CCNC(=O)c2ccc3nnc(CC4CC4)n3c2)cc1 |  | inconclusive: 50.1 µM [inhibitor, partial curve, poor fit] | 
38 | COc1ccccc1CCN1CCCC(CN(C)C(=O)C(=O)c2cccn2C)C1 (stereo not given) |  | inconclusive: 50.1 µM [inhibitor, partial curve, poor fit] | 
39 | O=C1c2c(nc(COc3cccc(F)c3)n2Cc2ccccc2)NCCN1CCOc1ccccc1 |  | active: 35.5 µM | 
40 | CCCNC(=O)CC1Sc2ncccc2N(CC)C1=O (stereo not given) |  |  | inactive
41 | COc1ccccc1-c1nc(C(=O)NCc2cccnc2)n2ccccc12 |  | inconclusive: 44.7 µM [inhibitor, partial curve, poor fit] | 
42 | Cc1ccccc1CN1Cc2nc(-c3ccccc3)ccc2OCC1=O |  | inconclusive: 56.2 µM [inhibitor, partial curve, poor fit] | 
43 | CC(C)c1ccc(CN2C[C@H]3[C@H](C2)[S+](=O)([O-])C(C)(C)C(=O)N3Cc2ccccc2)cc1 |  | inconclusive: 44.7 µM [inhibitor, partial curve] | 
44 | O=C(NC1CCCc2c1[nH]c1ccccc21)c1cn(C2CC2)c(=O)c2ccccc12 (stereo not given) |  | inconclusive: 44.7 µM [inhibitor, partial curve, poor fit] | 

Row | SMILES | activity change, negative = cytotoxicity | Potency | outcome
45 | O=C1NCc2ccccc2CC12CCN(Cc1ccc(Oc3ccccc3)cc1)C2 (stereo not given) |  | active: 31.6 µM | 
46 | COc1cc(NC(=O)N2CCC3(CC2)SCC(=O)N3Cc2ccco2)cc(OC)c1 |  | inconclusive: 79.4 µM [inhibitor, partial curve, poor fit] | 
47 | COc1cccc(-c2cccc(C(=O)N3CCCC3C(=O)N3CCCC(C)C3)c2)c1 (stereo not given) | inactive: -18.1% |  | 
48 | CCOC(=O)C1(Cc2ccc(F)cc2F)CCCN(C(=O)c2cccnc2SC)C1 (stereo not given) |  | inconclusive: 100 µM [inhibitor, partial curve, poor fit] | 
49 | C[C@@H](NC(=O)c1ccccc1)c1c(-c2ccc(Cl)cc2)noc1C(=O)O |  | inconclusive: 63.1 µM [inhibitor, partial curve, poor fit] | 
50 | COCc1cc(=O)n(CC(=O)Nc2cc(Cl)ccc2OC)c(N2CCOCC2)n1 |  | inconclusive: 70.8 µM [inhibitor, partial curve, poor fit] | 
51 | O=C(CC[C@@H]1CNC(=O)[C@@H]2C[C@H](NC(=O)Nc3ccccc3)CN12)Nc1ccccc1 | inactive: 2.97% [at 174 µM] |  | 
52 | Cn1nccc1CCC(=O)N[C@@H]1CCOC[C@H]1Oc1ccccn1 | inactive: -3.4% |  | 
53 | CCOC(=O)[C@@H]1CN(C(=O)C(CC)CC)[C@H]2c3cccc(C)c3O[C@@H]12 |  | inconclusive: 50.1 µM [inhibitor, partial curve, poor fit] | 
54 | CN(Cc1ccc(-c2ccccc2)cc1)Cc1ccnn1C |  | inconclusive: 31.6 µM [inhibitor, partial curve, poor fit] | 
55 | O=C(Cn1nc2c(cc1=O)CCCC2)N1CCn2c(nnc2C(F)(F)F)C1 |  | inconclusive: 25.1 µM [inhibitor, single point] | 
56 | CCOC(=O)C1CCCN(C(=O)c2cc(-c3cc(Cl)cc(Cl)c3)c3nncn3n2)C1 (stereo not given) |  | inconclusive: 44.7 µM [inhibitor, partial curve, poor fit] | 
57 | Cc1cc(F)ccc1NC(=O)C1CN(S(=O)(=O)C2CC2)CC12CCCCC2 (stereo not given) |  | inconclusive: 56.2 µM [inhibitor, partial curve, poor fit] | 
58 | C=CCNC(=O)[C@H]1CN(Cc2ccccc2)C[C@H]1C(=O)O | inactive: -14.3% |  | 
59 | CCOC(=O)[C@H]1[C@@H](O)C(=O)N(Cc2ccccc2)C12CCN(C(=O)c1cccs1)CC2 |  | inconclusive: 70.8 µM [inhibitor, single point] | 
60 | Cc1ccc(C(=O)N2CCC(CCC(=O)N3CCCCC3)CC2)cc1 | inactive: -13.4% |  | 
61 | Cc1ncccc1C(=O)N1CCCN(Cc2ccncc2)C(c2ccccc2)CC(=O)NCC1 (stereo not given) | inactive: -5.98% |  | 
62 | O=C(C[C@@H]1CCNC[C@@H]1Cc1cc(CN2CCOCC2)on1)N1CCN(c2ccccc2)CC1 | inactive: -4.79% |  | 
63 | CCn1cc(CN(C)CC2(O)CCCN(Cc3ccc(C(C)C)cc3)C2=O)cn1 (stereo not given) |  | inconclusive: 56.2 µM [inhibitor, partial curve, poor fit] | 
64 | CC(=O)N1CCC(N[C@H]2C[C@@H](Cc3cc(CN4CCCCC4)on3)C2(C)C)CC1 |  | inconclusive: 100 µM [inhibitor, partial curve] | 
65 | COc1ccc(NC(=O)c2nnn3c2CN(Cc2cccc(Cl)c2)C(=O)CC3)c(C)c1 | inactive: -18.9% [at 138 µM] |  | 
